# According to the supplement of paper PMC3334620:
# Over roughly 33,000 sequences, “E-score (-0.5 to 0.5)” has its median near -0.012; the highest 2% begin near 0.27. The list shows a part of the results.
# Molecular target: T1, Vhr1 (UniProt P40522)
# T1 sequence: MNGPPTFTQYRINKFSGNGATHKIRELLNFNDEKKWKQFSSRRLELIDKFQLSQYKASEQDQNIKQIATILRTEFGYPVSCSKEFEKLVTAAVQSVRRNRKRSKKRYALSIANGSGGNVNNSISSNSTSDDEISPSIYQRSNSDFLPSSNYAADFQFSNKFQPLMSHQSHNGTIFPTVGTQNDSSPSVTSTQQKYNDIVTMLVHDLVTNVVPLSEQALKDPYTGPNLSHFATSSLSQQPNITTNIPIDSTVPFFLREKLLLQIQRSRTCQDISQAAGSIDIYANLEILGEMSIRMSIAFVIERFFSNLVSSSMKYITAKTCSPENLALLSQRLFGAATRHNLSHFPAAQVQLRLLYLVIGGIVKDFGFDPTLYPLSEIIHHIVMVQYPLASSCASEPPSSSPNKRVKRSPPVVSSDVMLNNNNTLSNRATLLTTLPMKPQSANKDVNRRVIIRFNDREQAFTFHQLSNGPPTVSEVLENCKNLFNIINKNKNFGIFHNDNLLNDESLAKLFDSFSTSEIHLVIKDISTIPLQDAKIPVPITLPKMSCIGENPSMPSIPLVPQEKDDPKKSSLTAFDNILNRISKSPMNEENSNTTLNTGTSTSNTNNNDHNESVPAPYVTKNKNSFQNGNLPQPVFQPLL
# Experiment: PBM E-score (8-mer binding enrichment) (E-score (-0.5 to 0.5)); higher = stronger / more preferred TF binding; most listed sequences are background and not binding sites
# Details: protein concentration: 200 nM; construct: GST-full length
# Procedure: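 Universal 'all 10-mer' protein binding microarrays (Agilent AMADID 015681) probed with GST-tagged S. cerevisiae TFs (full-length or DBD) made by in vitro transcription/translation (PURExpress), about 100-200 nM. Bound TF was detected with fluorescent anti-GST. Each ungapped 8-mer (which stands for itself and its reverse complement) is scored by the PBM enrichment score (E-score), a modified Wilcoxon-Mann-Whitney statistic from -0.5 to +0.5, computed with the Universal PBM Analysis Suite. Scale: above 0.35 generally sequence-specific binding.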
row,Sequence,PBM E-score
1,AATGAAGT,-0.0303
2,TCAAATGA,-0.0694
3,GCATACAA,0.0493
4,AACGGGAA,-0.149
5,ACGTGTAG,-0.128
6,ACCACGTG,0.123
7,GCATCCCC,-0.204
8,GGACTCTA,-0.118
9,ACGGCGAG,0.17
10,TCCTAAGA,-0.182
11,ATATGATG,0.191
12,GTTGTAAA,-0.124
13,AGGGCAGC,-0.18
14,AAACATGG,0.0809
15,ATGCACAA,0.0872
16,ACCAGCGC,0.00898
17,GCTTGATA,-0.0152
18,GAATAAAA,-0.272
19,AGTCACCC,0.446
20,CGTCGGTA,-0.118
21,ACCTAAAA,-0.221
22,GGCGTTCA,-0.18
23,ACCCACTG,0.22
24,CAGTACCC,0.103
25,TCAGGACA,0.0678

row,Sequence,PBM E-score
1,CGCGTCTC,0.0173
2,CATCGCAC,0.0126
3,GACCGTTA,-0.144
4,GCGGTAGA,-0.0235
5,TATACAGA,0.117
6,CGCATACA,0.152
7,ACTCTTAT,0.113
8,CGAGTCGC,0.34
9,AAGCGCAT,-0.155
10,ACCAATTA,0.121
11,GACAACAC,0.0918
12,CCCCCCTC,-0.207
13,TATAGTAA,0.15
14,TAGTACGA,0.00355
15,TATTACCA,-0.0433
16,CTCCTAGC,-0.18
17,ACGAATAG,-0.137
18,CCAGTAGG,-0.105
19,ACTCTCCG,0.0109
20,TCCCGCAA,-0.0326
21,CGTGACGA,0.00499
22,ACACTACA,0.261
23,ACGGAGGC,-0.125
24,GGAGTTGA,-0.175
25,GATCACGC,0.193

row,Sequence,PBM E-score
1,GCGGGACC,0.024
2,GAGCTTTA,-0.188
3,TAGACGGA,-0.0853
4,AAGCTGCT,-0.0801
5,ACACGTAG,0.0491
6,CCTCGAGA,-0.00909
7,ACCTCACT,0.0543
8,ACACATAA,0.119
9,CCCCTTAA,-0.226
10,TCTCGGCA,-0.188
11,TCACGCGA,0.0392
12,AACGGGAG,0.147
13,GCACGCAC,-0.121
14,AGGGGAGA,-0.145
15,AGTGTACA,0.0323
16,TTTTAAAA,-0.281
17,GAGGCTTA,-0.247
18,CGCAGTCC,0.0797
19,CTTCCAAC,-0.164
20,GTGGCTTA,-0.111
21,CGGTAGGC,-0.223
22,CGTAGCAA,0.0632
23,CGGCGTTC,-0.0711
24,GCGGAATA,-0.0883
25,GCATGAAC,0.103

row,Sequence,PBM E-score
1,CAAGACGG,-0.0483
2,ACCGAATA,-0.00815
3,GTCCCGGA,-0.123
4,ACCATCGT,-0.137
5,CAGATGGG,-0.0247
6,CACCATGC,0.0528
7,GAGTTTTA,-0.112
8,AGCACAAA,0.031
9,CCTAGTAG,-0.141
10,ATTGATAA,0.0392
11,CCCGACGA,0.144
12,CCTGGTAA,-0.194
13,GCGTGGAA,-0.15
14,GTACAAAC,0.0927
15,GGCATGTA,-0.057
16,TATGGTAA,0.179
17,ATAATTAG,0.00826
18,ACCATGTG,0.295
19,TCCCATCA,-0.086
20,AAAGCGTC,-0.226
21,AGCCCGGC,0.0911
22,AAAGTACT,-0.109
23,CCCACAGC,0.0709
24,GTAAGAAA,-0.181
25,CATCCACC,0.0845

row,Sequence,PBM E-score
1,CCAGACCG,0.123
2,CATAACCA,0.0831
3,ATTAGTGA,0.255
4,AACGAGTC,0.278
5,AGCATTGG,-0.0405
6,AGCCTCGC,-0.138
7,GTCAAGTA,-0.162
8,AAAGAGTG,-0.0318
9,CACTGCGC,0.0598
10,AGTAAAAG,0.0753
11,GTCCACTA,-0.0384
12,CGAAAGTC,-0.131
13,CAAAAGTG,-0.0415
14,CGCTGTCC,-0.17
15,GAGACTCC,0.286
16,AGGAGAGA,-0.104
17,TGGAAGAA,-0.02
18,ATCATGCC,0.0697
19,ACTCTACC,0.0388
20,GGTGGTAA,0.0621
21,AACCCAGG,0.044
22,AGTCGGTA,-0.0272
23,ATTGCGAA,-0.0969
24,AAAATCTA,-0.175
25,AAACTCTA,-0.122

row,Sequence,PBM E-score
1,CAGGTTAA,-0.0304
2,CTATGAGA,-0.0669
3,AGTGCTGC,-0.0215
4,CAGTTATC,-0.0919
5,AGCGGCCA,-0.173
6,CGATCCCC,-0.00048
7,AAAATAGA,-0.0962
8,ATTCAGTC,0.105
9,AAATCACA,0.0215
10,GATGCTAC,0.021
11,CCCGTGCC,-0.244
12,ACGAGAGA,-0.154
13,ATGATGGC,0.158
14,AGCTACAA,-0.198
15,ACATGATG,0.0128
16,AATTACGG,-0.15
17,ATAGAATC,-0.0714
18,AATGAAAT,-0.0315
19,AACTCGGT,-0.11
20,TCTCTGAA,-0.0732
21,GCTCTACC,-0.205
22,AAAAAGAA,-0.108
23,AGTATCCC,-0.0276
24,AACATTGT,0.118
25,AACCCATA,0.271

row,Sequence,PBM E-score
1,ACCCCTCG,-0.0469
2,GCTCCACC,-0.123
3,AGCTCAAC,-0.0814
4,AGTGACTG,0.288
5,ACCGTCGG,-0.0835
6,ATCGCCGG,0.188
7,GTTTTTAA,-0.0648
8,AGAGTCGA,0.157
9,CTGACGAA,-0.00684
10,ATGGGATC,-0.0379
11,CCCCACCA,0.0983
12,GACGCTAA,-0.272
13,GCACTGCA,0.108
14,ATCTAGTC,0.0194
15,AAAACTGT,-0.0987
16,AAACTTAC,-0.115
17,AGCTAAAC,-0.254
18,CGTCCTCC,-0.218
19,CGTTATGA,-0.054
20,CGGTCACG,-0.0515
21,GCCGGCTA,-0.0689
22,AGCAAACC,0.224
